# According to publication PMC6212790:
# Some of the results follow. At the low end of the ranking the order means little.
# Molecular target: T1, GST-Rok (full length) (UniProt O34857)
# T1 sequence: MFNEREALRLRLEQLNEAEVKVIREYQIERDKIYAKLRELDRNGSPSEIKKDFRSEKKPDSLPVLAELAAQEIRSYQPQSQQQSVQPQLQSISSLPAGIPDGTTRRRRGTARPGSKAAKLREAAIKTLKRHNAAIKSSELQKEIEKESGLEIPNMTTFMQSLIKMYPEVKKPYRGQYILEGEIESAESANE
# Test: protein binding microarray;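 note: rank score from −0.5 (least bound) to 0.5 (best bound)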
# Conditions: Rok is a gene silencer of Bacillus subtilis; high values mean tight binding; most listed sequences are background and not binding sites; double strand, one strand shown
row,Sequence,binding signal
1,CTCAGGTA,0.00854 E-score
2,AAAGCTAT,0.114 E-score
3,CCATTGCA,0.0693 E-score
4,AACATCTG,-0.0115 E-score
5,AAAATGAG,0.198 E-score
6,GCAGTGGC,-0.258 E-score
7,CCTCACGC,-0.124 E-score
8,ATTCTTGG,-0.0431 E-score
9,CCCACCAA,-0.143 E-score
10,AGTGGGCC,-0.331 E-score
11,CTACTTGC,0.073 E-score
12,CAATATAA,0.213 E-score
13,CGACCGCC,-0.333 E-score
14,CAACATAC,0.246 E-score
15,AATTAATG,0.198 E-score
16,TATTGTCA,0.24 E-score
17,TAGCCCGA,-0.0153 E-score
18,GATCCTCA,-0.166 E-score
19,TTAATAAA,0.235 E-score
20,ACCGTGGG,-0.252 E-score
21,AACCTGCT,-0.14 E-score
22,CTCACTCC,-0.163 E-score
23,CAATGATC,0.0311 E-score
24,AAAATTTG,0.177 E-score
25,CCAGACCC,-0.342 E-score

row,Sequence,binding signal
1,CGTGAGGA,-0.116 E-score
2,CCGCATCC,-0.201 E-score
3,GTGACCTA,0.0118 E-score
4,CCATAAAG,-0.218 E-score
5,ATTTAGAA,0.152 E-score
6,CCACGGCG,-0.281 E-score
7,GATGTAGC,0.0838 E-score
8,GTGTATAA,0.246 E-score
9,ATATCCCG,-0.0367 E-score
10,CAGACGCG,-0.266 E-score
11,AACTTAGA,0.114 E-score
12,AGCAGGAT,-0.0321 E-score
13,AGGTCTAG,-0.13 E-score
14,ACGAGGGA,-0.261 E-score
15,GATTACCC,-0.171 E-score
16,CGAGTTTC,0.0534 E-score
17,CCTCGGGA,-0.21 E-score
18,ATTAGACC,0.047 E-score
19,AACATTAG,0.269 E-score
20,CTTGTTCA,0.0668 E-score
21,CCCGTCGC,-0.231 E-score
22,GTTGCGGA,0.0202 E-score
23,GGTTAACC,-0.0306 E-score
24,CCGTCTAC,-0.107 E-score
25,AAATTGTC,0.121 E-score

row,Sequence,binding signal
1,AACCGCTT,-0.0627 E-score
2,CCTGAGAG,-0.153 E-score
3,AAGCAGAT,0.0889 E-score
4,AGTCAGAA,0.0781 E-score
5,GTATGATA,0.323 E-score
6,AGTATACG,0.274 E-score
7,CGTGAGGC,-0.181 E-score
8,ACGCACAA,-0.1 E-score
9,CGAGCATA,0.139 E-score
10,AACTAGGA,0.211 E-score
11,CACCCAAG,-0.249 E-score
12,ATTGCTGG,0.0752 E-score
13,GGCTTTAC,0.00573 E-score
14,CAGAGCGC,-0.0616 E-score
15,GACGTCTA,0.217 E-score
16,CATAGCGA,0.0421 E-score
17,CGCCGCAG,-0.275 E-score
18,ACCGGATC,-3.57e-05 E-score
19,ATGGCGTA,0.00897 E-score
20,AAATAATC,0.286 E-score
21,ACGAGCCG,-0.365 E-score
22,CATGGGCA,-0.0307 E-score
23,GGCCACAC,-0.25 E-score
24,CCAGGTTC,-0.307 E-score
25,ATACTTTC,0.334 E-score

row,Sequence,binding signal
1,CTGGACAA,-0.0964 E-score
2,AAGGGCCA,-0.244 E-score
3,ATCTATTA,0.312 E-score
4,AAACACTG,-0.0947 E-score
5,TGAAATAA,0.257 E-score
6,CAAGCCCA,-0.0682 E-score
7,AAAGCAAG,0.0646 E-score
8,AGTCACAG,-0.0307 E-score
9,AACGGAGG,-0.132 E-score
10,GTCATGTA,0.264 E-score
11,ATACGATG,0.0889 E-score
12,CGCGTTCC,-0.127 E-score
13,ACGTAGAA,0.195 E-score
14,ACTTCGGC,-0.201 E-score
15,GGGCTGGA,-0.292 E-score
16,CTCGGGGA,-0.285 E-score
17,CGAGCCGA,-0.319 E-score
18,GATCCAAC,-0.17 E-score
19,ATAATCAT,0.263 E-score
20,CAGGACCA,-0.143 E-score
21,AAAGGGAT,-0.13 E-score
22,GCGTGCAA,-0.188 E-score
23,AGAGGCAT,-0.0614 E-score
24,CGCTCAAG,-0.0739 E-score
25,CAAGTAAC,0.0806 E-score

row,Sequence,binding signal
1,AGTAAGGA,-0.0123 E-score
2,CTGTCGCC,-0.196 E-score
3,ACGCCGCG,-0.162 E-score
4,ACAGACAT,0.0548 E-score
5,AGCCGCTG,-0.204 E-score
6,CATCGGGA,-0.0816 E-score
7,ATGCGGGG,-0.411 E-score
8,AAGGTCAA,0.000225 E-score
9,ATTGTAGG,0.0383 E-score
10,ACCCAAAT,0.022 E-score
11,CCGCCAAC,-0.337 E-score
12,CTCAGTCC,-0.209 E-score
13,CAACTACC,0.303 E-score
14,CCGCTTAG,-0.177 E-score
15,TCATCCGA,-0.00791 E-score
16,AGGCGGTC,-0.384 E-score
17,ACTTTGGG,0.0189 E-score
18,GGGAAGGA,-0.176 E-score
19,ATGAGCCC,-0.319 E-score
20,CCCGTTTA,-0.207 E-score
21,GCGACCAC,-0.174 E-score
22,ACTCCCCG,-0.189 E-score
23,ACTTATCG,0.173 E-score
24,CTACAAAG,0.145 E-score
25,GGGCCCAC,-0.401 E-score

row,Sequence,binding signal
1,TAGTAGAA,0.439 E-score
2,ACATCCTG,-0.081 E-score
3,AGCAGTGG,-0.251 E-score
4,TATTGACA,0.0754 E-score
5,ACCATTGA,0.0998 E-score
6,AGGGAAAT,0.0621 E-score
7,CTTCCTGC,-0.0935 E-score
8,GACAAGCA,-0.182 E-score
9,CTATGTGC,0.0257 E-score
10,CTCTTCCA,-0.235 E-score
11,ATGTCGTC,-0.209 E-score
12,GATATGGA,0.139 E-score
13,ACACACGC,-0.15 E-score
14,TCCGTAAA,-0.0155 E-score
15,CTCGGATA,-0.00168 E-score
16,CTTACTTA,0.214 E-score
17,TGCGATAA,0.0492 E-score
18,AACATGCA,0.201 E-score
19,ATATTAAG,0.275 E-score
20,AAATCAAT,0.0975 E-score
21,CAACGACA,0.0825 E-score
22,CACTCAAA,0.0709 E-score
23,CTATCTCA,0.258 E-score
24,ACGTTACA,0.205 E-score
25,CTTTATTA,0.158 E-score

row,Sequence,binding signal
1,CTACCAAA,0.26 E-score
2,CACGGTAA,0.155 E-score
3,GCGTACCA,-0.205 E-score
4,AGATGAAA,-0.135 E-score
5,TATTATGA,0.238 E-score
6,CGTAAGGA,-0.177 E-score
7,ATCTCGAA,0.106 E-score
8,CAAGCTCA,-0.0535 E-score
9,CATAGTGG,0.0697 E-score
10,CGTTTAAG,-0.0976 E-score
11,TATCCGGA,0.107 E-score
12,ATAATTGC,0.284 E-score
13,CTGGATTA,0.107 E-score
14,AGCGCTAG,0.103 E-score
15,GCCCCTAC,-0.167 E-score
16,CGGGCGTC,-0.325 E-score
17,CATTGGCA,-0.225 E-score
18,GATGAAGA,-0.251 E-score
19,AGTAAGTG,0.165 E-score
20,CTACCTCC,0.0507 E-score
21,AGGAAATC,-0.0356 E-score
22,AAGGGTGT,-0.17 E-score
